# Source: PubChem BioAssay AID686979 (National Center for Advancing Translational Sciences (NCATS), 2013)
# Hit rate of the full screen: of about 420,000 compounds, about 50,000 (12%) were called active. Inconclusive results, whose numbers are uncertain, are shown with a selection of clear calls. Calls follow the shape of the dose curve; as a rule, active = well fitted inhibition curve with a large enough effect; inconclusive = small, poorly fitted or top-dose-only effect; inactive = flat fitted curve, though single readings scatter. Potencies of inconclusive entries are left out as doubtful fits.
# Assay: qHTS for Inhibitors of human tyrosyl-DNA phosphodiesterase 1 (TDP1): qHTS in cells in presence of CPT; also: nearly all actives have a fitted effect of over 55% in size
# Settings: chicken DT40 Tdp1-/-;hTDP1 cells + 20 nM CPT, ATP luminescence, 48 h; activity change, negative = growth inhibition: at 46.2 µM (top of the series) unless noted
# In short: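 Chicken DT40 Tdp1-/- cells complemented with human TDP1, 400 cells/well, exposed to compounds plus 20 nM camptothecin for at least 48 h at 37 C; viability read as ATP content by CellTiter-Glo luminescence.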
# % is scaled to controls: 0 for no effect and ±100 for the full control effect; potency is read from the fitted curve at half-maximal effect; tags tell the direction and shape of the fitted curve.
Compound,Potency,"activity change, negative = growth inhibition"
O=C(O)c1ccccc1-n1cccc1C(=O)O,inactive,
O=C(CCN1C(=O)c2ccccc2C1=O)NNC(=O)c1ccc(Cl)cc1Cl,inactive,
Cc1ccc(CN2CCSc3ccc(C(=O)NCc4ccco4)cc32)cc1,"inconclusive [inhibitor, single point]",
COc1cccc(OC)c1C(=O)Nc1ccc(S(=O)(=O)N2CCCCC2)cc1,inactive,
Cc1[nH]c2ccccc2c1/C=C(\C#N)C(=O)NCc1ccccc1,"inconclusive [inhibitor, single point]",
COc1ccccc1/C=C/C=N/NC(=O)c1ccco1,"inconclusive [inhibitor, single point]",
CCCCCCN(CCCCCC)C(=O)Cc1c(-c2ccc(Cl)cc2)[nH]c2ccc(Cl)cc12,"inconclusive [inhibitor, single point]",
CC(C#N)Sc1nc2ccccc2c(=O)n1-c1ccccc1 (stereo unspecified),"inconclusive [inhibitor, partial curve]",
C[C@H]1C(O)[C@@]23CCC4C5(C=[N+](CCO)C[C@]4(C)CCC5)C2C[C@@H]1C3 (stereo partly specified),,inactive: -2.74% [at 9.04 µM]
COC(=O)c1c(NC(=O)c2ccc(Br)s2)sc2c1CCC2,,inconclusive: -33.8% [inhibitor]
COc1ccc([N+](=O)[O-])cc1NC(=O)Nc1ccccc1,"inconclusive [inhibitor, single point]",
Cn1c(SCC(=O)Nc2ccc3nc(SCC(=O)NC4CC4)sc3c2)nnc1-c1ccccc1,inactive,
CCOC(=O)C1CCN(Cc2cnc(Oc3ccc(Cl)cc3C)s2)CC1,inactive,
COc1cccc(C(O)c2nccn2Cc2ccccc2)c1OC (stereo unspecified),"inconclusive [inhibitor, partial curve]",
COc1cccc(NC(=O)Cn2c(=O)n(-c3ccc(Cl)cc3)c(=O)c3sc4ccccc4c32)c1,"inconclusive [inhibitor, partial curve]",
O=C(/C=C/c1ccc(F)cc1)NC(=S)Nc1ccccc1,"inconclusive [inhibitor, single point]",
CCOc1ccc(/C=C/c2nc3ccccc3n2S(=O)(=O)c2ccc(Br)cc2)cc1,"inconclusive [inhibitor, partial curve]",
Cc1ccc(/C=N/Nc2nc(C)cc(C)n2)cc1,inactive,
O=C(COC(=O)c1ccc(F)c(S(=O)(=O)N2CCOCC2)c1)c1ccc(Br)cc1,inactive,
CC1C(=O)Nc2ccccc2N1C(=O)c1ccc(F)cc1 (stereo unspecified),inactive,
CCN1CCN(c2ncc3c(n2)CCN(Cc2ccc(Br)s2)C3)CC1,active: 13 µM,
Cc1cccc(OCC(O)CN2CCN(CCN3C(=O)c4cccc5cccc(c45)C3=O)CC2)c1C (stereo unspecified),"inconclusive [inhibitor, single point]",
COc1cccc(C(=O)Nc2ccc3c(c2)C(=O)c2ccccc2C3=O)c1,"inconclusive [inhibitor, single point]",
O=C(COc1cccc2c1CCNC2=O)Nc1ccc(Cl)cc1,active: 18.4 µM,

Compound,Potency,"activity change, negative = growth inhibition"
Fc1ccc(-c2nnc(-n3nnc4ccccc43)c3ccccc23)cc1,"inconclusive [inhibitor, single point]",
CCCCN(C(=O)c1cc2ccccc2o1)c1c(N)n(CCCC)c(=O)[nH]c1=O,inactive,
CCOc1ccc(S(=O)(=O)Nc2ccc(O)c(Sc3ncn[nH]3)c2)cc1,"inconclusive [inhibitor, partial curve]",
Cc1ccccc1-c1cc(C(=O)NCc2ccc3c(c2)OCO3)nn1CC1CC(c2cccc([N+](=O)[O-])c2)=NO1 (stereo unspecified),inactive,
COc1ccc(C2C3=C(CC(C)(C)CC3=O)Nc3n[nH]c(C)c32)cc1 (stereo unspecified),inactive,
CNC(=O)c1nnsc1S(=O)(=O)c1ccc(Cl)cc1,active: 0.731 µM,
CCC(C(=O)c1ccc2ncccc2c1)c1ccccc1 (stereo unspecified),active: 14.6 µM,
CCc1ccc(-c2[nH]nc3nc(-c4ccc(OC)cc4)cc(C(=O)NCCc4ccc(OC)c(OC)c4)c23)cc1,"inconclusive [inhibitor, single point]",
O=C(Nc1ccc(OC(F)(F)F)cc1)c1ccc2nc[nH]c2c1,inactive,
O=C(CC1SC(=Nc2ccccc2)N(Cc2ccccn2)C1=O)Nc1ccc(Br)cc1 (stereo unspecified),active: 16.4 µM,
CC1=C(C(=O)OCC2CCCO2)C(c2ccc(C)o2)C2=C(CC(c3ccc(F)cc3)CC2=O)N1 (stereo unspecified),"inconclusive [inhibitor, single point]",
O=C(CC1Sc2ccccc2NC1=O)NNc1ccc(Cl)cc1Cl (stereo unspecified),"inconclusive [inhibitor, single point]",
COc1cc(/C=C(/C(=O)O)c2ccc(-c3ccccc3)cc2)cc(OC)c1OC,"inconclusive [inhibitor, single point]",
Cc1ccc(NC(=O)Cn2nnc3sc(-c4ccccc4)cc3c2=O)cc1Cl,inactive,
COc1cc(C2c3c(-c4ccccc4)n[nH]c3C(=O)N2c2ccccc2)ccc1O (stereo unspecified),"inconclusive [inhibitor, single point]",
CCC(c1nnnn1-c1ccc2c(c1)OCCO2)N1CCN(C(=O)c2ccco2)CC1 (stereo unspecified),"inconclusive [inhibitor, single point]",
Cc1ccc(C)c(NC(=O)C2CCCN2/C=C/C(=O)C(F)(F)F)c1 (stereo unspecified),inactive,
COc1ccc(NC(=O)C2(C)Cc3c(-c4cccc(NC(C)=O)c4)ccnc3O2)cc1OC (stereo unspecified),"inconclusive [inhibitor, single point]",
CCn1nc(C)c([N+](=O)[O-])c1C(=O)NNC(=O)c1ccccc1Cl,inactive,
CCCC(NC(=O)c1c(C)noc1C)C12CC3CC(CC(C3)C1)C2 (stereo unspecified),inactive,
Cc1ccc(S(=O)(=O)NCC(=O)N(c2ccccc2)C(C(=O)NCc2ccccc2)c2ccco2)cc1 (stereo unspecified),"inconclusive [inhibitor, single point]",
O=C(Nc1nnc([C@@H]2C[C@H](O)[C@@H](CO)O2)s1)Nc1ccccc1Oc1ccccc1,"inconclusive [inhibitor, single point]",
O=C(/C=C/NNC(=O)c1ccccc1O)c1ccccc1,"inconclusive [inhibitor, single point]",
N#Cc1c(N)c2ccccn2c1C(=O)c1ccc(Br)cc1,"inconclusive [inhibitor, single point]",

Compound,Potency,"activity change, negative = growth inhibition"
CC(C)Cc1nc2oc3c(=O)[nH]cnc3c2c2c1CCCC2,inactive,
CCCc1nc2ccc(C(=O)OC)cn2c1Cc1ccccc1,"inconclusive [inhibitor, single point]",
COC(=O)c1ccc(Cl)cc1NC(=O)N(Cc1ccc(C)o1)C1CCN(C(C)=O)CC1,"inconclusive [inhibitor, single point]",
COc1ccc(/C=N/NC(=O)c2ccc(NC(=O)c3cccc([N+](=O)[O-])c3)cc2)c(OC)c1,inactive,
CC(C)(C)OC(=O)NCCCC[C@H](NC(=O)[C@H](Cc1c[nH]c2ccccc12)NC(=O)OCc1ccccc1)C(=O)O,inactive,
COCOCCn1cc(CN2CCS(=O)(=O)N(Cc3ccc(-c4ccc(OC)cc4)cc3)C(C(C)C)C2=O)nn1 (stereo unspecified),active: 14.6 µM,
Cc1ccc(CNS(=O)(=O)c2ccc(CN3C(=O)c4cccnc4C3=O)s2)o1,inactive,
COc1cccc(N=Cc2ccc(O)cc2O)c1,inactive,
O=C(c1cc(C(F)(F)F)cc(C(F)(F)F)c1)N1CCC[C@@]2(CCN(c3ccncc3)C2)C1,inactive,
CC(OC(=O)c1c(F)cccc1F)C(=O)NCCC1=CCCCC1 (stereo unspecified),"inconclusive [inhibitor, single point]",
COc1ccc(NC(C)=O)cc1NC(=O)CSc1nnc(-c2ccccn2)n1C,inactive,
CC(Oc1nc2c(c(=O)n(C)c(=O)n2C)n1C)C1CCCCC1 (stereo unspecified),active: 23.1 µM,
CCn1c(=O)c(=O)n(CC)c2cc(N3CCCCC3)c(NC(=O)c3cccc(F)c3)cc21,"inconclusive [inhibitor, single point]",
Cc1nc(SCC(=O)NCCN2C(=O)CSC2=O)nc(C)c1C,inactive,
COc1cc2c(cc1OC)C(CNC(=O)C=Cc1cc(OC)c(OC)c(OC)c1)C2 (stereo unspecified),"inconclusive [inhibitor, single point]",
COc1ccccc1NC(=O)Nc1ccc(NC(=O)c2ccccc2O)cc1,inactive,
COc1ccc(/C=N/Nc2ncnc3scc(-c4ccccc4)c23)cc1OC,"inconclusive [inhibitor, single point]",
COC(=O)Nc1ccc(S(=O)(=O)N2CCC(C(=O)N3CCC(C)CC3)CC2)cc1,"inconclusive [inhibitor, single point]",
CCOc1ccc(CCNC(=O)COC(=O)c2sccc2C)cc1OCC,"inconclusive [inhibitor, single point]",
O=C(NCCc1ccccc1)/C(=C\c1ccc([N+](=O)[O-])cc1)NC(=O)c1ccc(Br)cc1,"inconclusive [inhibitor, single point]",
N#CC1(c2ccc(NC(=O)c3ccccc3F)cc2)CCCC1,"inconclusive [inhibitor, partial curve, poor fit]",
Cc1nnc2c(Nc3cccc(O)c3)nc3ccccc3n12,"inconclusive [inhibitor, partial curve, poor fit]",
COc1ccc(NC(=O)c2c(-c3c(Cl)cccc3Cl)noc2C)c(OC)c1,"inconclusive [inhibitor, single point]",
